The record followed here is patent publication US20250270341A1 (Alector, published 2025).

To fix the notation:
T1: Cyno CD98hc ECD Avi-His (cynomolgus macaque, UniProt P08195 105-529 (human entry))
T1 construct: biotinylated on the Avi tag where captured on streptavidin; also called Cyno CD98-AVI-His; Cyno CD98hc-AVI-His
T1 chain: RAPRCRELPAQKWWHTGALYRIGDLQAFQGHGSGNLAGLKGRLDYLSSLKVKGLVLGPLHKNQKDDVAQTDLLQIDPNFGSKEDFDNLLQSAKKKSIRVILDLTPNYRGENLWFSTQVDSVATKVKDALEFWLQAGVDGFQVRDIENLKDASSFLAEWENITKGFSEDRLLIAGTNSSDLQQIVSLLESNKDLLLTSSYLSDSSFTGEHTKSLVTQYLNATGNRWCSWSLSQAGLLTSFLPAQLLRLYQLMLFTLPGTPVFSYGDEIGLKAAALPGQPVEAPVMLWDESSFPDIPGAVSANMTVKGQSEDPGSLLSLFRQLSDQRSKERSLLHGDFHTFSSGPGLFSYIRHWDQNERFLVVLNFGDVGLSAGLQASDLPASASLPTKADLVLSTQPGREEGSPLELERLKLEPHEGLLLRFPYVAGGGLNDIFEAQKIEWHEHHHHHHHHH

T2: huCD98hc ECD Avi-His (human, UniProt P08195 105-529)
T2 construct: biotinylated on the Avi tag where captured on streptavidin; also called Human CD98-AVI-His; Human CD98hc-AVI-His
T2 sequence: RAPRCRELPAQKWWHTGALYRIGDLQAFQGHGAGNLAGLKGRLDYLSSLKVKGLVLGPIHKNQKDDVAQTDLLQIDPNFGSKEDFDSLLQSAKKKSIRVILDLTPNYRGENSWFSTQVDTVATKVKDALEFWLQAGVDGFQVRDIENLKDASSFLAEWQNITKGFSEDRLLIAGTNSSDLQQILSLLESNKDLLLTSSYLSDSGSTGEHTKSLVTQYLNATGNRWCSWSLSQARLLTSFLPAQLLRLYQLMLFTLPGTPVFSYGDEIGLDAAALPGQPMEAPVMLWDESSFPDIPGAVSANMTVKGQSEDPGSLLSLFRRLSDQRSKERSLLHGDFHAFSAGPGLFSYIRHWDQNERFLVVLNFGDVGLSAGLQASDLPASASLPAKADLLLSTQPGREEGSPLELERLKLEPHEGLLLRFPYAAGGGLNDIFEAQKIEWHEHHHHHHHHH

T3: human CD98hc endogenously expressed on HCMEC/D3 cells (human)
T3 construct: human brain endothelial cell line
T3 chain: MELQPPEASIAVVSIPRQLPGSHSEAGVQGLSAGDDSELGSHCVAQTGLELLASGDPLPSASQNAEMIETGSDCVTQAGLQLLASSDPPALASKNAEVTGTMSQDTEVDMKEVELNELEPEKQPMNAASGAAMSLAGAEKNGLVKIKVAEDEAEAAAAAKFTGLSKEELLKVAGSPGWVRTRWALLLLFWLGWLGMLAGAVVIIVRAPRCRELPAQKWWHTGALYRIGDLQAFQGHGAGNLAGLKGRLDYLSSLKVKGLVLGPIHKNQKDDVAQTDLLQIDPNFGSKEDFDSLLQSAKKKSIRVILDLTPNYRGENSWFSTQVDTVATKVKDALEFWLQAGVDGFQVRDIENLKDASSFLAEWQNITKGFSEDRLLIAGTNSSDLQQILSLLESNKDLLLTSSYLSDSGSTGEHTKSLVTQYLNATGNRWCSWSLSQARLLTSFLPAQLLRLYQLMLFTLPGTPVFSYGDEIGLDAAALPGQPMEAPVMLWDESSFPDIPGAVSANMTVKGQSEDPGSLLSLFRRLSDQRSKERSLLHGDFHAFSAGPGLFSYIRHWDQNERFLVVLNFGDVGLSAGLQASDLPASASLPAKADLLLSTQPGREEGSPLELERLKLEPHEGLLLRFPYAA

B1: CD98hc.05.207 (2+1 bispecific antibody) (bispecific antibody)
heavy 1: EVRLLESGGGLVQPGGSLRLSCAASGFTFSNYAMGWVRQAPGKGLEWVSAISGSGGSTYYADSVKGRFTTSRDDSKNALYLQMNSLRAEDTAVYYCARGGPGWYAADVWGQGTTVTVSSASTKGPSVFPLAPSSKSTSGGTAALGCLVKDYFPEPVTVSWNSGALTSGVHTFPAVLQSSGLYSLSSVVTVPSSSLGTQTYICNVNHKPSNTKVDKKV[here human IgG1 Fc with changes without letters]GGGGSGGGGSGGGGSEVQLVESGGGLVKPGGSLKISCAASGFAFSSYDMSWVRQTPEKRLEWVAYISSAGGSTYFPGTVKGRFTISRDNAKNTLYLQMRSLKSEDTAMYYCARHENGHYPFFDFWGQGTTLTVSSGGSEGKSSGSGSESKSTGGSDIVMSQSPSSLAVSVGEKVTLSCKSSQSLFYSGNQKTYLAWYQQKPGQSPKLLIYWTSTRESGVPDRFTGSGSGTDFTLTISSVKAEDLAVYFCQQYYTYPPTFGAGTKLEIK
heavy 2: EVRLLESGGGLVQPGGSLRLSCAASGFTFSNYAMGWVRQAPGKGLEWVSAISGSGGSTYYADSVKGRFTTSRDDSKNALYLQMNSLRAEDTAVYYCARGGPGWYAADVWGQGTTVTVSS[here human IgG1 constant region with changes without letters]
light: DIQMTQSPSSLSASVGDRVTITCRASQSISSYLNWYQQKPGKAPKLLIYAASSLQSGVPSRFSGSGSGTDFTLTISSLQPEDFATYYCQQADLPAFAFGGGTKVEIKRTVAAPSVFIFPPSDEQLKSGTASVVCLLNNFYPREAKVQWKVDNALQSGNSQESVTEQDSKDSTYSLSSTLTLSKADYEKHKVYACEVTHQGLSSPVTKSFNRGEC
B2: CD98hc.05.226 (2+1 bispecific antibody) (bispecific antibody)
heavy 1: EVRLLESGGGLVQPGGSLRLSCAASGFTFSNYAMGWVRQAPGKGLEWVSAISGSGGSTYYADSVKGRFTTSRDDSKNALYLQMNSLRAEDTAVYYCARGGPGWYAADVWGQGTTVTVSSASTKGPSVFPLAPSSKSTSGGTAALGCLVKDYFPEPVTVSWNSGALTSGVHTFPAVLQSSGLYSLSSVVTVPSSSLGTQTYICNVNHKPSNTKVDKKV[here human IgG1 Fc with changes without letters]GGGGSGGGGSGGGGSEVQLVESGGGLGKPGGSLKLSCAASGFAFSSYDMSWVRQTPEKRLDWVAYISSGGGGTYYPDTVKGRFTISRDNAKNTLYLQMSSLKSEDTAIYYCARHVGVRPWFGYWGQGTLVTVSSGGSEGKSSGSGSESKSTGGSDIVMSQSPSSLAVSVGEKITMTCKSSQSLLYSGSQKNYLAWYQQKPGQSPKLLIYWASTRESGVPDRFTGSGSGTDFTLTISSVKAEDLAVYYCQQYSYYPPTFGAGTKLEIK
heavy 2: EVRLLESGGGLVQPGGSLRLSCAASGFTFSNYAMGWVRQAPGKGLEWVSAISGSGGSTYYADSVKGRFTTSRDDSKNALYLQMNSLRAEDTAVYYCARGGPGWYAADVWGQGTTVTVSS[here human IgG1 constant region with changes without letters]
light: B1 light
B3: CD98hc.04.063 (2+1 bispecific antibody) (bispecific antibody)
heavy 1: EVRLLESGGGLVQPGGSLRLSCAASGFTFSNYAMGWVRQAPGKGLEWVSAISGSGGSTYYADSVKGRFTTSRDDSKNALYLQMNSLRAEDTAVYYCARGGPGWYAADVWGQGTTVTVSSASTKGPSVFPLAPSSKSTSGGTAALGCLVKDYFPEPVTVSWNSGALTSGVHTFPAVLQSSGLYSLSSVVTVPSSSLGTQTYICNVNHKPSNTKVDKKV[here human IgG1 Fc with changes without letters]GGGGSGGGGSGGGGSEVKLEESGGGLVQPGGSMILSCVASGFTFSNSWMNWVRQSPEKGLEWVAEIRLRSNNYATHYAESVKGRFTISRDDSKSTVYLQMNNLRAEDTGIYYCSRGDPGAYWGQGTLVTVSAGGSEGKSSGSGSESKSTGGSDIQMTQSSSYLSVSLGNRVTITCKASDHIKNWLAWFQQKPGNAPRLLISGATILETGVPSRFSGSGSGKDYTLSITSLQTEDVATYYCQQYWSTPYTFGGGTKLEIK
heavy 2: EVRLLESGGGLVQPGGSLRLSCAASGFTFSNYAMGWVRQAPGKGLEWVSAISGSGGSTYYADSVKGRFTTSRDDSKNALYLQMNSLRAEDTAVYYCARGGPGWYAADVWGQGTTVTVSS[here human IgG1 constant region with changes without letters]
light: B1 light
B4: CD98hc.04.058 (2+1 bispecific antibody) (bispecific antibody)
heavy 1: EVRLLESGGGLVQPGGSLRLSCAASGFTFSNYAMGWVRQAPGKGLEWVSAISGSGGSTYYADSVKGRFTTSRDDSKNALYLQMNSLRAEDTAVYYCARGGPGWYAADVWGQGTTVTVSSASTKGPSVFPLAPSSKSTSGGTAALGCLVKDYFPEPVTVSWNSGALTSGVHTFPAVLQSSGLYSLSSVVTVPSSSLGTQTYICNVNHKPSNTKVDKKV[here human IgG1 Fc with changes without letters]GGGGSGGGGSGGGGSQVQLQQSGAELVRPGVSVKISCKASGYTFTDHTMHWVKQSHARSLEWIGVISTYFGDASYNPKFKGKATMTVDKSSNTAYMELARLTSEDSAIYYCARVGGRLRLGYYFDYWGQGTTLTVSSGGSEGKSSGSGSESKSTGGSNIMMTQSPSSLAVSAGEKVTMNCKSSQTVLYSSNQKNYLAWYQQKPGQSPKLLIYWASTRESGVPDRFTGSGSGTDFTLTISSVQVEDLAVYYCHQYLSSYTFGGGTKLEIK
heavy 2: EVRLLESGGGLVQPGGSLRLSCAASGFTFSNYAMGWVRQAPGKGLEWVSAISGSGGSTYYADSVKGRFTTSRDDSKNALYLQMNSLRAEDTAVYYCARGGPGWYAADVWGQGTTVTVSS[here human IgG1 constant region with changes without letters]
light: B1 light
B5: CD98hc.04.011 (2+1 bispecific antibody) (bispecific antibody)
heavy 1: EVRLLESGGGLVQPGGSLRLSCAASGFTFSNYAMGWVRQAPGKGLEWVSAISGSGGSTYYADSVKGRFTTSRDDSKNALYLQMNSLRAEDTAVYYCARGGPGWYAADVWGQGTTVTVSSASTKGPSVFPLAPSSKSTSGGTAALGCLVKDYFPEPVTVSWNSGALTSGVHTFPAVLQSSGLYSLSSVVTVPSSSLGTQTYICNVNHKPSNTKVDKKV[here human IgG1 Fc with changes without letters]GGGGSGGGGSGGGGSDVQLQESGPDLVKPSQSLSLTCSVTVYSFTSVYSWHWIRQFPGNKLEWMGYIHDSGTTNYNPSLKSRISVTRDTSKNQFFLQLNSVTTEDTATYYCARGRPYGYDGFAYWGQGTLVTVSAGGSEGKSSGSGSESKSTGGSDIQMTQSSSYLSVSLGDRVTITCKASDHINNWLAWYQQKPGNAPRLLITGAVNLETGVPSRFSGSGSGKDYTLSITSLQTEDVATYYCQQYWSIPRTFGGGTNLEIK
heavy 2: EVRLLESGGGLVQPGGSLRLSCAASGFTFSNYAMGWVRQAPGKGLEWVSAISGSGGSTYYADSVKGRFTTSRDDSKNALYLQMNSLRAEDTAVYYCARGGPGWYAADVWGQGTTVTVSS[here human IgG1 constant region with changes without letters]
light: B1 light
B6: CD98hc.04.009 (2+1 bispecific antibody) (bispecific antibody)
heavy 1: EVRLLESGGGLVQPGGSLRLSCAASGFTFSNYAMGWVRQAPGKGLEWVSAISGSGGSTYYADSVKGRFTTSRDDSKNALYLQMNSLRAEDTAVYYCARGGPGWYAADVWGQGTTVTVSSASTKGPSVFPLAPSSKSTSGGTAALGCLVKDYFPEPVTVSWNSGALTSGVHTFPAVLQSSGLYSLSSVVTVPSSSLGTQTYICNVNHKPSNTKVDKKV[here human IgG1 Fc with changes without letters]GGGGSGGGGSGGGGSQVQLKESGPGLVAPSQSLSITCTVSGFSLTSYGVHWVRQPPGKGLEWLGVIWAGGSTYYNSALMSRLSISKDNAKSQVLLKMSSLQTDDTAMYYCARDNYGGVYLDVWGAGTTVTVSSGGSEGKSSGSGSESKSTGGSENVLTQSPASMSASPGEKVTMTCRASSSVSSSYLHWYQQKSGASPKLWIYSTSNLASGVPARFSGSGSGTSYSLTISSVEAEDAATYYCQQYSGYPLTFGSGTKLEIK
heavy 2: EVRLLESGGGLVQPGGSLRLSCAASGFTFSNYAMGWVRQAPGKGLEWVSAISGSGGSTYYADSVKGRFTTSRDDSKNALYLQMNSLRAEDTAVYYCARGGPGWYAADVWGQGTTVTVSS[here human IgG1 constant region with changes without letters]
light: B1 light

The first assay deals with T1, Cyno CD98hc ECD Avi-His. As to the kind of experiment: SPR, Carterra LSA, antibody immobilized. In general terms: SPR reads the build-up and loss of mass on a sensor chip optically.
A word on the Kd: it is the concentration at which binding is half-saturated. The low end stands for higher affinity, the high end for lower affinity. Turning to B1, the Kd is 120 nM.

B2 gave a Kd of 61 nM.

Another assay has as its target T2, huCD98hc ECD Avi-His. As to the kind of experiment: SPR, Carterra LSA, antibody immobilized.
Take B1: binding was characterised by a dissociation constant (Kd) of 42 nM.

On to B3, for which the affinity, expressed as Kd, was 78 nM.

B4 yielded a Kd of 25 nM.

For the molecule B2, the Kd came out at 21 nM.

A further assay concerns the target T3, human CD98hc endogenously expressed on …. The experiment in a line: FACS, 5 ug/ml. The protocol: To determine binding retention of 2+1 anti-CD98hc bispecific antibodies by FACS, antibodies were evaluated for binding to HCMEC/D3 cells (a cell line derived from human brain endothelial cells), overexpressing human and mouse CD98hc CHO cell lines, and parental CHO cells for non-specific binding. Cells were seeded in tissue culture plates (50,000 cells/well) and washed and resuspended in FACS buffer (PBS+2% BSA+1 mM EDTA). The 2+1 anti-CD98hc bispecific antibodies were then incubated with cells (5 μg/ml, 1 hr, on ice) and washed twice with FACS buffer. Cells were then incubated with allophycocyanin conjugated anti-mouse secondary antibody (Jackson Immunoresearch) (1:1000, 30 min, on ice) and then washed twice with FACS buffer. Next, cells were resuspended in FACS buffer supplemented with 0.5% propidium iodide (Thermo Fisher). Anti-CD98hc binding was then analyzed on the iQue flow cytometer (IntelliCyt) by measuring the Mean Fluorescent Intensity (MFI). FACS data are summarized below in Table 17, shown as MFI fold-change relative to isotype hIgG1 control.
(In general: In flow cytometry, cells or beads pass a laser one at a time.)
As for B5, the “MFI fold-change relative to isotype hIgG1” value turned out to be 27.5.

In the case of B6, the “MFI fold-change relative to isotype hIgG1” value came to 1.5.

Turning to B3, the “MFI fold-change relative to isotype hIgG1” value came out at 39.8.

With B4, the “MFI fold-change relative to isotype hIgG1” value is 26.3.
